# Data from PubChem BioAssay AID504332 (National Center for Advancing Translational Sciences (NCATS), 2011).
# In all, about 350,000 compounds went through this assay and about 31,000 (8.9%) were called active. Inconclusive results, whose numbers are uncertain, are shown with a selection of clear calls. Calls come from the whole dose curve; as a rule, active = well fitted inhibition curve with a large enough effect; inconclusive = small, poorly fitted or top-dose-only effect; inactive = no such curve, though single readings can be large or run the other way. Potencies beside an inconclusive call are fits to weak or partial responses and may not hold up.
# Molecular target: Histone-lysine N-methyltransferase EHMT2 (Homo sapiens) (UniProt Q96KQ7)
# Assay: qHTS Assay for Inhibitors of Histone Lysine Methyltransferase G9a; note: nearly all actives have a fitted effect of over 75% in size
# Settings: G9a H3K9 monomethylation, AlphaScreen, 2 h; activity, negative = inhibition: at 59 µM (top of the series) unless noted
# In short: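 Using a bead-based AlphaScreen, monomethylated H3K9 product from 2 h room-temperature reactions (G9a 20 nM, peptide 500 nM, SAM 20 uM) was detected with 0.5 ug/mL rabbit anti-H3K9me1 antibody.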
# % is set by controls: 0 for no effect and ±100 for the full control effect; potency is the fitted concentration of half-maximal effect; tags give direction and shape of the fitted curve.
# UniProt Q96KQ7, sequence (Q96KQ7 whole entry, looked up): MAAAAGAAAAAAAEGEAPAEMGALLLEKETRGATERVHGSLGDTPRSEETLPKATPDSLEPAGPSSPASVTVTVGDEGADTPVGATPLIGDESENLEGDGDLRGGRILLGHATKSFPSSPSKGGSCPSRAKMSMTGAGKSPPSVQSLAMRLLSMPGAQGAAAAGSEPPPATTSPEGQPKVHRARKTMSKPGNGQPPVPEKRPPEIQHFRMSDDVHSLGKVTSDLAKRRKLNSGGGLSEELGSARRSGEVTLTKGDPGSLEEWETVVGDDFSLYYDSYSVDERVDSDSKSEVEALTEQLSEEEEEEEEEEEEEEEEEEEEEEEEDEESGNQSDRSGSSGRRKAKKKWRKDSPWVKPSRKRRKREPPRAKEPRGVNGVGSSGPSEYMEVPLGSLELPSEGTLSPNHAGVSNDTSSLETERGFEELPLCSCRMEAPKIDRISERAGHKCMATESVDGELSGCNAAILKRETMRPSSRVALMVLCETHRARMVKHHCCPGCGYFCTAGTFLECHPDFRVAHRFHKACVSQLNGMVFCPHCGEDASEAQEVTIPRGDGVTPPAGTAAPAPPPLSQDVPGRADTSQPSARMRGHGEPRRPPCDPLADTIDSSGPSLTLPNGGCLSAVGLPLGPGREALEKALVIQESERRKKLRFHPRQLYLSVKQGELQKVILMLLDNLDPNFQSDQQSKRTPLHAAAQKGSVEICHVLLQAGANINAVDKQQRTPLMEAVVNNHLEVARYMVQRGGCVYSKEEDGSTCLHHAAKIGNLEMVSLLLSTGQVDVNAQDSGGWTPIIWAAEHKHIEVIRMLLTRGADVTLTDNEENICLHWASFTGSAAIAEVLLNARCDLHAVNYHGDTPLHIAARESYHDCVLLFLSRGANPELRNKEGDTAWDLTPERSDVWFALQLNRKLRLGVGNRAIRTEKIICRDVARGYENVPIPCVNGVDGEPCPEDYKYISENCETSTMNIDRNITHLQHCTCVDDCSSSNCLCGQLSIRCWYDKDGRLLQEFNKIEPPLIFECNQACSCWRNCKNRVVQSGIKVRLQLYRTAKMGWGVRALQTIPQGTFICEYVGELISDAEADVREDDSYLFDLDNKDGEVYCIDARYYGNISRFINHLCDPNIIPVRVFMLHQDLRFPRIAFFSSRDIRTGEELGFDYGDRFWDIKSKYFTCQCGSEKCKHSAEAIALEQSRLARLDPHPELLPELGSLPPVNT
SMILES,Potency,"activity, negative = inhibition"
COc1cc(C2c3c(oc4ccccc4c3=O)C(=O)N2CCN2CCOCC2)cc(OC)c1OC (centres undefined),"inconclusive: 2 µM [inhibitor, partial curve, poor fit]",–
Cc1ccc(C2/C(=C(/O)c3ccc(OC(C)C)cc3)C(=O)C(=O)N2CCN2CCOCC2)cc1 (centres undefined),"inconclusive: 6.31 µM [inhibitor, single point]",–
COc1cc(/C=C(\C#N)C(=O)Nc2cccc(C(=O)O)c2)ccc1OCc1ccc(C)cc1,"inconclusive: 70.8 µM [inhibitor, single point]",–
O=C(NN=C1c2ccccc2-c2ccccc21)c1ccccc1,active: 10 µM,–
COc1ccc(Nc2nc(Cl)nc(NCc3ccco3)n2)c(OC)c1,inactive,–
CC(Sc1nnc(-c2ccc(O)cc2)o1)C(=O)Nc1cccc2ccccc12 (centres undefined),active: 12.6 µM,–
COc1ccc(C)cc1NC(=O)CN(c1cc(C(F)(F)F)ccc1Cl)S(C)(=O)=O,inactive,–
CCOc1ccc(NC(=S)NC(=O)c2c(Cl)cnn2CC)c([N+](=O)[O-])c1,"inconclusive: 20 µM [inhibitor, single point]",–
CN(NC(=S)Nc1ccc(OC(F)F)cc1)C(=S)Nc1ccc(OC(F)F)cc1,"inconclusive: 79.4 µM [inhibitor, partial curve, poor fit]",–
CCN(CC)c1ccc(NC(=O)c2ccccc2Br)cc1S(=O)(=O)Nc1ccccc1OC,active: 1.26 µM,–
C=CCN1C(=O)[C@@H]2Cc3c([nH]c4ccccc34)C(c3cc(OC)c(OC)c(OC)c3)N2C1=S (some centres undefined),"inconclusive: 79.4 µM [inhibitor, single point]",–
CC/C(=N\NC(=O)c1ccc2c(c1)OCO2)c1ccccc1,inactive,–
CCOC(=O)c1cc(-c2ccccc2)sc1NC(=O)c1ccc(OC)c(OC)c1,active: 3.55 µM,–
CC(C)(C)Cc1nnc(NC(=O)CCc2ccccc2)s1,"inconclusive: 79.4 µM [inhibitor, single point]",–
CCOC(=O)CCCCC(=O)c1[nH]c(=O)[nH]c1CSc1nc(-c2ccccc2)c(C#N)c(=O)[nH]1,"inconclusive: 3.16 µM [inhibitor, single point]",–
O=C(Nc1ccccc1C(=O)N1CCOCC1)c1ccc(Br)cc1,"inconclusive: 100 µM [inhibitor, single point]",–
CN1CCC(N(C)S(=O)(=O)c2ccc(NC(=O)COc3ccc(F)cc3Cl)cc2)CC1,"inconclusive: 56.2 µM [inhibitor, partial curve, poor fit]",–
O=c1oc(-c2cccs2)nc2ccccc12,–,inconclusive: -65.7% [inhibitor]
COc1ccc(C(O)(C(C)C)C(CN2CCOCC2)c2ccccc2)cc1 (centres undefined),"inconclusive: 89.1 µM [inhibitor, single point]",–
OCCCc1nc2n(n1)C(c1cccs1)C=C(c1ccc(Br)cc1)N2 (centres undefined),"inconclusive: 31.6 µM [inhibitor, single point]",–
COc1ccccc1CNC(=O)CCn1c(=O)c2ccccc2n(CC(=O)Nc2ccc(C)cc2C)c1=O,inactive,–
CCN1/C(=C/c2ccc3cccc(C)c3[n+]2CC)Sc2ccccc21,active: 50.1 µM,–

SMILES,Potency,"activity, negative = inhibition"
Cc1ccc(S(=O)(=O)NC(=NC(Cc2ccccc2)C(=O)O)c2ccccc2)cc1 (centres undefined),"inconclusive: 89.1 µM [inhibitor, single point]",–
CCCCCn1cnc2c(=S)nc(N)[nH]c21,active: 8.91 µM,–
CCCCCCNC(=O)c1cn(CC)c2cc(N3CCN(C)CC3)c(F)cc2c1=O,"inconclusive: 89.1 µM [inhibitor, single point]",–
COc1cc(/C=C(/C#N)C(=O)NC(C)c2ccccc2)cc(OC)c1O (centres undefined),active: 14.1 µM,–
COc1ccccc1C(=O)NCC1CCN(c2ccc(S(=O)(=O)N3CCOCC3)cc2)CC1,"inconclusive: 79.4 µM [inhibitor, partial curve, poor fit]",–
CSC(SC)=C(C(C)=O)C(=O)c1ccc(C)cc1,"inconclusive: 70.8 µM [inhibitor, single point]",–
CN(C)c1ccc(C=NCCC2(c3ccccc3)CCOC(C)(C)C2)cc1 (centres undefined),inactive,–
CCN(Cc1ccccc1)C(=O)Cn1c(=O)n(Cc2ccccc2)c(=O)c2c1c1cc(OC)ccc1n2C,inactive,–
O=C(COC(=O)CCC(=O)c1ccccc1)Nc1nnc(-c2ccccc2)o1,"inconclusive: 89.1 µM [inhibitor, partial curve, poor fit]",–
CCc1ccc(NC(=O)[C@H](C)NC(=O)C2CCN(C(=O)[C@@H](N)CC(C)C)CC2)cc1,"inconclusive: 89.1 µM [inhibitor, single point]",–
S=c1[nH]nc(-c2ccccc2)n1/N=C/c1ccc(-c2ccccc2Cl)o1,"inconclusive: 8.91 µM [inhibitor, partial curve, poor fit]",–
CCc1nn2c(=O)c(S(=O)(=O)Nc3ccc(OC)c(Cl)c3)c(C)nc2s1,"inconclusive: 10 µM [inhibitor, partial curve]",–
Cc1ccc2[nH]c3c(c2c1)CN(C(=O)CN1CCCCC1)CC3,active: 50.1 µM,–
O=C1/C(=C/c2cccc(Cl)c2)CSc2sccc21,inactive,–
COCCCn1c(C)cc(C(=O)COC(=O)C23CC4CC(CC(O)(C4)C2)C3)c1C,inactive,–
Nc1c(C(=O)Nc2ccccc2)sc2nc3c(c(-c4ccco4)c12)CCC3,"inconclusive: 44.7 µM [inhibitor, partial curve]",–
CCSc1nnc(-c2cc(Br)ccc2N)c(=O)[nH]1,inactive,–
CCn1c(SCC(=O)Nc2ccc3c(c2)oc2ccccc23)nnc1-c1ccc(N)cc1,"inconclusive: 28.2 µM [inhibitor, single point]",–
O=C(OCCN=C1NS(=O)(=O)c2ccccc21)c1cccc([N+](=O)[O-])c1,inactive,–
O=C(Nc1ccc(OC(F)F)cc1)Nc1cccc(C(F)(F)F)c1,inactive,–
COc1ccc(OC)c(NC(=O)c2c(NCc3ccc(C)o3)sc3c2CCC(C)C3)c1 (centres undefined),active: 11.2 µM,–
COc1ccc(N2CCN(CCCNC(=O)C3CCCN(S(=O)(=O)c4c(C)n[nH]c4C)C3)CC2)cc1 (centres undefined),"inconclusive: 39.8 µM [inhibitor, partial curve]",–
